Article PMC4336329 (PLoS ONE, 2015)
The whole screen tested about 310,000 compounds, of which about 14,000 (4.5%) showed an effect of 50% or more. Effects have a minus sign here. The list shows a part of the results.

These molecules were tested against human ether-à-go-go-related gene (hERG) potassium channel (human, UniProt Q12809) (assay: primary screen, population patch clamp on CHO cells stably expressing hERG).
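Note: peak tail current of the secondary pulse compared with the same well before compound.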

Chain of human ether-à-go-go-related gene (hERG) potassium channel (Q12809 whole entry, looked up): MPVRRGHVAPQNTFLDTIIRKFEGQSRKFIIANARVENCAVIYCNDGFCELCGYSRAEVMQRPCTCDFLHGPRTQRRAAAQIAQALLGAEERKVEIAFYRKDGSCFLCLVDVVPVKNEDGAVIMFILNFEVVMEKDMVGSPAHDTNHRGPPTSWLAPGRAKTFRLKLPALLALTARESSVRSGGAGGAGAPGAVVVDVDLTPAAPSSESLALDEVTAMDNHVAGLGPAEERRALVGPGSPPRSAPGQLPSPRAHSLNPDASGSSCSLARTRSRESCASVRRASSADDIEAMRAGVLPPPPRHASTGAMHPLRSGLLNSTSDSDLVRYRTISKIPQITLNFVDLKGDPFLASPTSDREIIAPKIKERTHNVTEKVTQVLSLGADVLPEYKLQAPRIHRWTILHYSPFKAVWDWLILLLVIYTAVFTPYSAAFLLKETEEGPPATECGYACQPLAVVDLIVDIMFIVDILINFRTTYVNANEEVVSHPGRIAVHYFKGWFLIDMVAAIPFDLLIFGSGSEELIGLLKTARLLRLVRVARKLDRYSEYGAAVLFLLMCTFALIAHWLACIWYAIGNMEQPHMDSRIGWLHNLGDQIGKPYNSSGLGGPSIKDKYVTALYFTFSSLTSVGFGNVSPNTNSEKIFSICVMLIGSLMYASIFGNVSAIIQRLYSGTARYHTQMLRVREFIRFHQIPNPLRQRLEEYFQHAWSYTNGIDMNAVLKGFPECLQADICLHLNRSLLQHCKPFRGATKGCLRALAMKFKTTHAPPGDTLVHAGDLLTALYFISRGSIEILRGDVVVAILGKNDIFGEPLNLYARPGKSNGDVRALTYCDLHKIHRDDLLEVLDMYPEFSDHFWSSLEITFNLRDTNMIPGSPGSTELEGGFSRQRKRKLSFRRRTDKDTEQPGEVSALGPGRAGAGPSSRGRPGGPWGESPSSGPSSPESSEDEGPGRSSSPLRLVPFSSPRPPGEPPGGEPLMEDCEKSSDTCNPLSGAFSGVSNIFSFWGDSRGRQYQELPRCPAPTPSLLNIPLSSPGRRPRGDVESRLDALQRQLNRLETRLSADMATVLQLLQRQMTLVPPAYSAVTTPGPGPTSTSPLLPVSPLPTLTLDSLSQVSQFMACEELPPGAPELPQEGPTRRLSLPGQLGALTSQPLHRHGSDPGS

| SMILES | hERG current change (%, negative = inhibition) at 10uM [%] |
| --- | --- |
| COc1ccc(C2C(C(=O)Nc3ccccc3)=C(C)Nc3nc(CCCO)nn32)cc1 (centres unmarked) | 12.3 |
| O=C(CCN1C(=O)C2C3C=CC(C4CC34)C2C1=O)OCC(=O)c1ccccc1 (centres unmarked) | -12.3 |
| CCCc1cc(=O)oc2cc(C)cc(OCC(=O)O)c12 | 15.5 |
| COCCCn1c(SCC(=O)N2CCOCC2)nc2ccccc2c1=O | -5.65 |
| COc1ccc(CNC(=O)CSc2nc3c(oc4ccccc43)c(=O)n2CC2CCCO2)cc1 (centres unmarked) | -60.6 |
| COc1ccc(C(=O)Nc2c(Cl)cc(Cl)cc2C(=O)NCCN2CCOCC2)cc1 | -15.6 |
| COc1cccc2c1O[C@H]1C(=O)CC[C@H]3CN(C)CCC231 (some centres unmarked) | 16.5 |
| CCCn1c(SCc2ccccn2)nc2c1c(=O)n(C)c(=O)n2C | 7.57 |
| OCCn1nc2c3ccccc3nc-2n(-c2ccccc2)c1=S | -9.49 |
| COc1ccc(OCC(=O)NNc2c3ccccc3nc3ccccc23)cc1 | 21.2 |
| COc1ccccc1C(C)NC(=O)c1cc(=O)[nH]c2ccccc12 (centres unmarked) | 23.6 |
| CCC(C(=O)NC(C)(C)C)N(C(=O)Cn1nnc(-c2ccccc2F)n1)c1cnc2ccccc2c1 (centres unmarked) | 21.4 |
| Cl.O=C(NCC1CCNCC1)c1ccncc1 | 13.4 |
| Cc1ccccc1CSCCNC(=O)c1ccc(N(C)S(=O)(=O)c2ccccc2)cc1 | -18.4 |
| COc1ccc(C(=O)CSc2nncn2C)cc1 | 18.9 |
| CC(=O)c1ccc(N(C(=O)c2csnn2)C(C(=O)NC2CCCC2)c2ccccc2)cc1 (centres unmarked) | -54.9 |
| COc1cc(-c2ccccc2)nc(N)n1 | -12.5 |
| CCCCOc1ccc(C(=O)NCC(=O)NCC(=O)OCC)cc1 | 7.17 |
| O=C(Cn1cccc1C(=O)c1ccccc1)NCCCN1CCc2ccccc2C1 | -74.1 |
| c1ccc(C(c2ccccc2)N2CCN(Cc3nc(-c4cnccn4)no3)CC2)cc1 | -21.6 |
| COc1cccc(-c2ncc3ccccc3c2COC(=O)N2CCOCC2)c1 | -19.7 |
| Cc1csc(C(=O)O)c1-n1cccc1 | 18.6 |
| CCOC(=O)C1CCCN(C(=O)Cn2cnc3c2c(=O)n(C)c(=O)n3C)C1 (centres unmarked) | 20.3 |

| SMILES | hERG current change (%, negative = inhibition) at 10uM [%] |
| --- | --- |
| CCOc1ccc(Br)cc1/C=N/NC(=O)c1ccncc1 | -17.3 |
| CCCCNC(=O)Nc1c(C(=O)OC)[nH]c2ccc(C)cc12 | -2.17 |
| COc1ccc(NC(=O)C2CCCN(S(=O)(=O)c3cccc4cccnc34)C2)c(OC)c1 (centres unmarked) | -4.99 |
| COc1ccc(NC(=O)c2ccc(Cl)c(S(=O)(=O)N3CC(C)OC(C)C3)c2)cn1 (centres unmarked) | -7.91 |
| CC(c1ccccc1)C1C(C#N)=C(N)SC(N)=C1C#N (centres unmarked) | -4.5 |
| COc1ccccc1CCc1nnc(CCC(=O)N(C)Cc2cccc3ncccc23)o1 | -15.1 |
| Cc1cccn2c(=O)nc(SCC(=O)Nc3ccc4c(c3)OCO4)nc12 | -5.58 |
| O=C(Nc1ccc(C(F)(F)F)cc1)C1CCCN1S(=O)(=O)c1cccc2cccnc12 (centres unmarked) | -51.9 |
| O=C(CSc1ncnc2sc3c(c12)CCCC3)c1ccccc1 | 3.83 |
| COc1ccc(NC(=O)NCCN2CCCCC2)cc1 | -10.1 |
| Cc1cccc(NC(=S)N(CCN2CCOCC2)Cc2ccccc2F)c1 | -25 |
| CC(=O)c1ccc(NC(=O)Nc2ccc(Br)cc2C)cc1 | 22.3 |
| O=C(NC1CCN(CC(=O)N(c2ccccc2)c2ccccc2)CC1)c1ccc([N+](=O)[O-])cc1 | -78 |
| CC(C)Oc1cccc(C(=O)N/N=C/c2ccoc2)c1 | 8.71 |
| CCn1ccc(C(=O)NCc2ccc3c(c2)OCO3)n1 | 13.2 |
| COC(=O)c1sc(S(=O)(=O)NCc2ccccc2)c(C(=O)OC)c1C | -50.4 |
| O=C(NCc1ccccc1)c1ccc(Br)o1 | 8.67 |
| Cc1oc2c(c1C(=O)NCCO)CCCC2 | 18.6 |
| CN(Cc1cccnc1)C(=O)Cc1ccc(NS(=O)(=O)c2cccc(C(F)(F)F)c2)cc1 | -57.6 |
| O=C(C(=O)N1CCCCC1)c1c(-c2ccccc2)[nH]c2ccccc12 | 8.46 |
| Cc1ccc(Oc2nnc(-c3ccccc3)c3ccccc23)cc1 | -2.98 |
| Nn1c(SCc2cn3cc(Cl)ccc3n2)nnc1-c1ccncc1 | -30.6 |
| COc1cc(OC)c(C2=NOC(C(=O)NCc3ccc4c(c3)OCO4)C2)cc1Cl (centres unmarked) | -4.96 |

| SMILES | hERG current change (%, negative = inhibition) at 10uM [%] |
| --- | --- |
| Nc1cc(CN2C(=O)c3ccccc3C2=O)cc(Cl)c1O | -5.61 |
| COCCNC(=O)COC(=O)C1=Cc2ccccc2OC1 | 25.1 |
| CC(C)OCCCn1c(=O)c2ccccc2n2c(CCC(=O)N3CCN(c4ccccn4)CC3)nnc12 | -71.1 |
| C=CCn1cc(/C=N\NC(=O)c2cc3c(ccc4ccccc43)o2)c2ccccc21 | -4.85 |
| CN(C)S(=O)(=O)c1ccc(C(=O)OCC(=O)Nc2ccccc2OC(F)F)cc1 | -5.82 |
| O=C(COc1ccc(Cl)cc1)NCc1nnc(SCC(=O)NCCc2ccccc2)o1 | -8.89 |
| CCCCn1c(=O)[nH]c(=O)c2c1nc(-c1ccncc1)n2CCOC | -0.235 |
| N#Cc1nc(COc2ccc(Cl)cc2)oc1N1CCN(Cc2ccccc2)CC1 | -1.08 |
| CCCN(CC(=O)Nc1ccccc1C)C(=O)c1ccc2c(c1)OCO2 | 9.43 |
| COc1ccccc1C(=O)NC(CCSC)C(=O)NCCCn1nc(C)cc1C (centres unmarked) | -0.863 |
| CCOCCCNC(=O)c1ccc(Cn2c(=O)[nH]c3ccsc3c2=O)cc1 | 12.4 |
| COc1cc(Cl)cc(C(c2c(C(=O)O)[nH]c3ccccc23)c2c(C(=O)O)[nH]c3ccccc23)c1O | 13.4 |
| C[C@H]1CCC(=O)N([C@H](CN=[N+]=[N-])Cc2ccccc2)CC1 | 0.858 |
| C=CCNC(=O)N[C@@H](CCSC)C(=O)OC | -3.95 |
| Cc1sc2nc3n(c(=O)c2c1C)NC(=O)CC3 | 10.2 |
| Cc1ccc(C2CC(=O)N3CN(c4ccc(Br)cc4)CSC3=C2C#N)o1 (centres unmarked) | 11.1 |
| O=C(CSc1nnc(-c2ccco2)o1)c1ccc([N+](=O)[O-])cc1 | -35.7 |
| CCN(CC)c1ccc(NC(=O)COc2ccc(C)cc2)cc1 | -15.3 |
| CCn1ncc(Br)c1C(=O)Nc1ccccc1C(=O)OC | -4.3 |
| COc1cc(OC)nc(Oc2ccccc2C(=O)Oc2ccc(Cl)cc2)n1 | -21.6 |
| c1cc2c(cc1Oc1nc(N3CCOCC3)nc(N3CCOCC3)n1)OCO2 | 3.77 |
| O=C(COc1ccccc1)N/N=C/c1ccc([N+](=O)[O-])o1 | -17.8 |
| O=C(Nc1ccccc1F)c1ccc(Br)o1 | 3.57 |

| SMILES | hERG current change (%, negative = inhibition) at 10uM [%] |
| --- | --- |
| Cc1ccc(S(=O)(=O)NC(=O)Nc2cc(C(C)(C)C)on2)cc1 | 17.5 |
| O=C(Nc1nonc1-c1ccc(Cl)cc1)c1ccccc1 | 10.3 |
| O=c1[nH]c(Nc2ccccc2Cl)cc2ccccc12 | 10.9 |
| O=C(NNC1=C(C(=O)C(F)(F)F)CCC1)c1ccncc1 | 23.7 |
| CN(C)C(=O)CCCCCCCCC(=O)N(C)C | 19.2 |
| COc1ccc(/C(C)=N\NS(C)(=O)=O)c(OC)c1 | 17.9 |
| Cc1cccc2cc(C(c3nnnn3C(C)(C)C)N3CCN(C(=O)c4ccco4)CC3)c(=O)[nH]c12 (centres unmarked) | -16.2 |
| O=C(CSc1nnc(-c2ccccn2)n1-c1ccc(Cl)cc1)Nc1ccc2c(c1)OCO2 | 7.63 |
| Cc1ccc(-c2ocnc2C(=O)Nc2ccccc2NC(=O)c2ccccn2)cc1 | 14.3 |
| CCc1ccc(-n2c(=O)c3ccccc3n(CC(=O)NCc3ccco3)c2=O)cc1 | 20.6 |
| CCOc1ccc(N(CC(=O)NC2CCCCC2)C(=O)CSc2nnc(COc3ccccc3)o2)cc1 | -4.72 |
| CCNC(=O)COc1cccc2ccccc12 | -13.9 |
| O=C(N/N=C\c1ccc[nH]1)C1COc2ccccc2O1 (centres unmarked) | -9.26 |
| Cc1ccc(C)c(Cc2c(C)nc3c(C(=O)N4CCOCC4)cnn3c2C)c1 | -7.47 |
| CC1=NOC(=O)/C1=C/c1ccc(N(C)C)cc1 | -1.58 |
| Cc1cc(-c2nnc3n2N=C(C(C)(C)C)CS3)n[nH]1 | 7.77 |
| Cc1cc(C)c2c(c1)[C@@H]1C=CC[C@@H]1[C@H](c1ccc(S(=O)(=O)N3CCOCC3)cc1)N2 | -5.61 |
| COc1ccc(C(=O)Oc2cccc3cccnc23)cc1S(=O)(=O)N1CCOCC1 | -31.9 |
| O=C(c1ccc(O)cc1)c1ccc(C(=O)c2ccc(O)cc2)cc1 | -4.4 |
| CC(NC(=S)NCc1ccccc1)C12CC3CC(CC(C3)C1)C2 (centres unmarked) | 20.4 |
